For 8 molecules, binding results are on record in article PMC6555833, “APC/C^CDH1 synchronizes ribose-5-phosphate levels and DNA synthesis to cell cycle progression” (Nature Communications, 2019).

Sequences of proteins named here, by UniProt entry; tags and fusion partners are left off. A change or cut given only in a name is not applied to a line headed by its entry.
UniProt Q12834: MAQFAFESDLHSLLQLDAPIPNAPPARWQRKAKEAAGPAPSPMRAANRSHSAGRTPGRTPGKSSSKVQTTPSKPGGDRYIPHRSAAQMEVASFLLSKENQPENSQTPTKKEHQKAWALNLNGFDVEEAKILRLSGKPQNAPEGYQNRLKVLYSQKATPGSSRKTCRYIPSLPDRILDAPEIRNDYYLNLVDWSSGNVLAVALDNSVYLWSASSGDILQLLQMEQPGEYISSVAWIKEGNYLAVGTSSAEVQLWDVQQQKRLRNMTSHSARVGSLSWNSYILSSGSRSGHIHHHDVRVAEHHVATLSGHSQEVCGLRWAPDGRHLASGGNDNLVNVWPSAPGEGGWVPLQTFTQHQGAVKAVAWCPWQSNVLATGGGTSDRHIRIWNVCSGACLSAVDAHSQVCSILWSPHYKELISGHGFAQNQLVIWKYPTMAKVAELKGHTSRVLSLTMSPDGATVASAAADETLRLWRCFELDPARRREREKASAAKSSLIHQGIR
UniProt Q9UM11: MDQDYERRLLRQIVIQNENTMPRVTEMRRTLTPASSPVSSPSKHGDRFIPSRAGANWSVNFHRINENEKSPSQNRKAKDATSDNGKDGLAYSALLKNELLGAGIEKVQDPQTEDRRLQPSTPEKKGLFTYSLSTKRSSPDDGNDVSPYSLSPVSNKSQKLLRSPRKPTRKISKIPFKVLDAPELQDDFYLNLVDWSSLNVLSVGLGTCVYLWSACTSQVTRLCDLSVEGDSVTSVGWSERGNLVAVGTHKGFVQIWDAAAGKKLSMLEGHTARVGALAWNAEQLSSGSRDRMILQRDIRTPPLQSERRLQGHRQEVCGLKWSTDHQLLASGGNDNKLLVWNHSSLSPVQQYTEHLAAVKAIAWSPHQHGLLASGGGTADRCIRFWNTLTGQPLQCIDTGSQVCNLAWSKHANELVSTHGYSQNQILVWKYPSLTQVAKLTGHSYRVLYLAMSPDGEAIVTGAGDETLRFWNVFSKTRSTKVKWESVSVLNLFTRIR

Assay [1] concerns the target T1, exogenous tagged TKTL1 (co-expressed with CDC20, SKP2 or FBW7) (human) (UniProt P51854).
T1 sequence: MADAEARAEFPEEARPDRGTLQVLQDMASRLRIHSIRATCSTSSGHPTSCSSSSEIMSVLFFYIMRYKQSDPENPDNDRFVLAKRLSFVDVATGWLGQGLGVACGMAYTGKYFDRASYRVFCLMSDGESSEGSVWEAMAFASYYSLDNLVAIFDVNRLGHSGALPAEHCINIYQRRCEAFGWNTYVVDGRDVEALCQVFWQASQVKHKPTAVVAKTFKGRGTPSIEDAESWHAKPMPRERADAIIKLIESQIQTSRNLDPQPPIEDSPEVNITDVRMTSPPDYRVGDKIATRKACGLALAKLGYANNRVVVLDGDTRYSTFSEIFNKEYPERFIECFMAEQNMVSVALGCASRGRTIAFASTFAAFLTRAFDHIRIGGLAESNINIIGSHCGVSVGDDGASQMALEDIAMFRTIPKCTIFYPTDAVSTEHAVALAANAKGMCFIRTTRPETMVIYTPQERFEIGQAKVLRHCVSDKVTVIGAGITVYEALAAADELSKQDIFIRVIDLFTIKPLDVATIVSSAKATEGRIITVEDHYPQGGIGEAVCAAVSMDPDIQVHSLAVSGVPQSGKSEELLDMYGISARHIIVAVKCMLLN
Put plainly: co-IP; exogenous tagged proteins co-expressed in cultured cells (Supplementary Fig. 4a-c); cell line and tags not told.

The next assay has as its target T2, TKTL1^ΔD-box (human) (UniProt P51854).
T2 sequence: T1 sequence with R18A, L21A
Put plainly: co-IP; co-expression in HeLa cells; lysis in 0.5% NP-40 buffer (50 mM Tris-HCl pH 7.5, 150 mM NaCl, 0.3% NONIDET P-40); Flag beads 3 h at 4 °C; western blot.

For assay [2], the target named is T3, TKTL1-FLAG (transketolase-like 1) (human) (UniProt P51854).
T3 sequence: T1 sequence
The description is as above.

Assay [3] addresses T4, endogenous TKTL1 (ccRCC tissue) (human (endogenous in ccRCC tissue)) (UniProt P51854).
T4 sequence: T1 sequence
Put plainly: co-IP; endogenous TKTL1 affinity purified from ccRCC tissue lysate and probed for the endogenous partner.

In assay [4] the target is T5, TKTL1 (overexpressed in HEK293T) (human) (UniProt P51854).
T5 sequence: T1 sequence
Put plainly: co-IP; full and truncated TKTL1 and TKT co-expressed in HEK293T cells; Flag beads; western blot. (In western blotting, separated proteins are transferred to a membrane and probed.)

Assay [5] deals with T6, TKT of the recombinant TKTL1-TKT heterodimer (human) (UniProt P29401).
T6 sequence: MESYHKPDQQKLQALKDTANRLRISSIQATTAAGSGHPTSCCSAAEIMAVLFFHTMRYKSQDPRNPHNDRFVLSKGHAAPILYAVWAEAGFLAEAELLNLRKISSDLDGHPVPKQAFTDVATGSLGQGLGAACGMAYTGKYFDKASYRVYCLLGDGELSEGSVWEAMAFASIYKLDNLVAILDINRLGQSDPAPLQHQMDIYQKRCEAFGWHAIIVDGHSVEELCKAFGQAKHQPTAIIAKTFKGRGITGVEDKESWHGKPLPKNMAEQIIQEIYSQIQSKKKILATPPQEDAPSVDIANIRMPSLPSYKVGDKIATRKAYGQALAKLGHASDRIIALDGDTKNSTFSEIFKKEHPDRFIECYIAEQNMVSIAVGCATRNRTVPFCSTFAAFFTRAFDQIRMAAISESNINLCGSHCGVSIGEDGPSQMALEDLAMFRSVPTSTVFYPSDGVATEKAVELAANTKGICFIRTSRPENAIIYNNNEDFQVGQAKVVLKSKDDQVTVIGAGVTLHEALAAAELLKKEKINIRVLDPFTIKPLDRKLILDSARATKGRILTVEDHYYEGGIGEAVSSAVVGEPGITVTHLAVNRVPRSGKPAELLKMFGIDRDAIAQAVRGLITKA
Put plainly: native gel or EMSA; native gel electrophoresis of TKT, TKTL1-TKT and TKTL1; both purified. (Mobility shift assays separate free from complexed probe on a gel.)

In assay [6] the target is T6, TKT of the recombinant TKTL1-TKT heterodimer (human). Put plainly: SEC; Superdex 200 in cold PBS (4 °C), 0.4 mL/min; fractions analysed by western blot; markers MSH6 (152 kDa) and BSA (66 kDa); heterodimer purified beforehand by nickel resin then FLAG beads; both purified. In general terms: In gel filtration, larger molecules generally elute earlier.
For assay [7], the target named is T7, ectopically expressed TKTL1 (progressive overexpression, Fig. 5a) (human) (UniProt P51854).
T7 sequence: T1 sequence
Put plainly: immunodepletion; TKTL1 progressively overexpressed; ectopic TKTL1 removed from the cell lysate by affinity purification; TKT left in the cleared lysate blotted.

Assay [8] deals with T4, endogenous TKTL1 (ccRCC tissue) (human (endogenous in ccRCC tissue)). Put plainly: co-IP; endogenous TKTL1 affinity purified from ccRCC tissue lysate and probed for the endogenous partner. The source holds these as a separate data set.
For assay [9] the target is unchanged. Put plainly: immunodepletion; TKTL1 removed from ccRCC tissue lysate by an anti-TKTL1 antibody; TKT left in the cleared lysate blotted.
Assay [10] has as its target T8, TKT (overexpressed in HEK293T) (human) (UniProt P29401).
T8 sequence: T6 sequence
Put plainly: co-IP; full and truncated TKTL1 and TKT co-expressed in HEK293T cells; Flag beads; western blot.

Where a chain is given by its changes, count along the chain named. These are yes or no findings as the source states them, for the method shown. For some assays here: In cells and extracts the contact can be indirect. Some entries that bind do so weakly or less than the wild type. For some assays here: Sequences can lack the tags named with a protein.

CDC20 (from UniProt Q12834 1-499): in assay [1], the binding result was “no binding”. With “CDH1-Myc (APC/C adaptor CDH1) (from UniProt Q9UM11 1-496)”, the binding entry (in the assay with TKTL1^ΔD-box (human); in assay [2]) was “binds” throughout. In the case of “endogenous CDH1 (ccRCC tissue) (from UniProt Q9UM11 1-496)”, the binding result in [3] is reported as “binds”.

B1: TKT with N-terminus (a.a. 1–147) and C-terminus (a.a. 474–623) removed (domain or fragment, UniProt P29401 148-473)
chain: RVYCLLGDGELSEGSVWEAMAFASIYKLDNLVAILDINRLGQSDPAPLQHQMDIYQKRCEAFGWHAIIVDGHSVEELCKAFGQAKHQPTAIIAKTFKGRGITGVEDKESWHGKPLPKNMAEQIIQEIYSQIQSKKKILATPPQEDAPSVDIANIRMPSLPSYKVGDKIATRKAYGQALAKLGHASDRIIALDGDTKNSTFSEIFKKEHPDRFIECYIAEQNMVSIAVGCATRNRTVPFCSTFAAFFTRAFDQIRMAAISESNINLCGSHCGVSIGEDGPSQMALEDLAMFRSVPTSTVFYPSDGVATEKAVELAANTKGICFIRTS
Consider B1, for which, in [4], the binding entry is “no binding”.

B2: TKTL1 of the recombinant TKTL1-TKT heterodimer (protein, UniProt P51854 1-596)
chain: T1 sequence
For the molecule B2, the binding result in assay [5] and in [6] was “binds” throughout.

B3: endogenous TKT (cells of Fig. 5a) (protein, UniProt P29401 1-623)
chain: T6 sequence
Regarding B3, the binding result in [7] is reported as “binds”.

B4: endogenous TKT (ccRCC tissue) (protein, UniProt P29401 1-623)
chain: T6 sequence
Turning to B4, the binding entry in assay [8] and in assay [9] was “binds” each time.

B5: TKTL1^118–448 (domain or fragment, UniProt P51854 118-448)
chain: YRVFCLMSDGESSEGSVWEAMAFASYYSLDNLVAIFDVNRLGHSGALPAEHCINIYQRRCEAFGWNTYVVDGRDVEALCQVFWQASQVKHKPTAVVAKTFKGRGTPSIEDAESWHAKPMPRERADAIIKLIESQIQTSRNLDPQPPIEDSPEVNITDVRMTSPPDYRVGDKIATRKACGLALAKLGYANNRVVVLDGDTRYSTFSEIFNKEYPERFIECFMAEQNMVSVALGCASRGRTIAFASTFAAFLTRAFDHIRIGGLAESNINIIGSHCGVSVGDDGASQMALEDIAMFRTIPKCTIFYPTDAVSTEHAVALAANAKGMCFIRTTR
As for B5, the binding entry in assay [10] is on record as “no binding”.
